# Assay results as given in publication PMC12040169 (PLOS Biology, 2025).
# This is one part of the list.
# Test system: T1, C. trachomatis L2/434/Bu expressing GFP (CTL2-GFP)
# T1 construct: L2/434/Bu GFP intracellular growth in HeLa cells
# Set-up: species or system HeLa; C. trachomatis total inclusion area by high-content imaging, normalised to DMSO
# Conditions: total inclusion area; 28.5 h, 10 µM; inhibitor
# Method in brief: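 High-content imaging followed the bulk GFP/resorufin measurement: fixed, Hoechst-stained cells were scored for GFP inclusions and host nuclei per well. Total inclusion area and count served as growth proxies, nuclei number as the viability proxy. MIC calculation matched the bulk assay.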
row,Structure (SMILES),% of control remaining
1,CCCN1CC(NS(=O)(=O)c2cc(OC)c(Cl)cc2OC)CC1=O (stereo not shown) [CBK307581],97.3163
2,c1ccc2c(c1)CCN(Cc1ccc3ccccc3c1)C2 [CBK126397],81.6683
3,Oc1ccccc1-c1ccnc(SC(F)F)n1 [CBK021971],52.8053
4,CN(Cc1cccn1C)C(=O)c1cc(-c2cnn(C)c2)[nH]n1 [CBK283325],109.312
5,CCCN1CCC(NC(=O)Cn2nnc3ccccc3c2=O)CC1 [CBK305581],55.9859
6,COc1c(C)cnc(CNC2CCCN(Cc3noc(C)n3)C2)c1C (stereo not shown) [CBK305350],43.0383
7,Cc1ccc(C#N)c(NCc2ccccc2CN2CCCC2CO)n1 (stereo not shown) [CBK304076],89.28
8,COCC(=O)N1CCC2(CC1)CC(=O)c1cc(Cl)cc(Cl)c1O2 [CBK156440],107.848
9,O=S(=O)(Nc1cccc(OC(F)(F)F)c1)c1ccc(N2CCNCC2)c2ccccc12 [CBK003935C],53.6315
10,O=C(O)CN(c1ccc(F)cc1)S(=O)(=O)c1ccc2c(c1)OCCO2 [CBK287096],111.219
11,O=C(NCCc1cc2ccccc2[nH]1)Nc1cccc2ccccc12 [CBK269246],65.7286
12,COc1ccc(-c2ccc(C(=O)N(C)C)c(N(C)C(C)=O)n2)cc1 [CBK076500],98.9593
13,COc1cccc(-c2ccc(NC(=O)c3ccc(Cn4cnnn4)cc3)cc2)c1 [CBK285850],99.7565
14,CC(C)OCC(=O)NC1CCCc2nc(N3CCC(CO)CC3)ncc21 (stereo not shown) [CBK307520],63.9851
15,COc1cccc(CN2CCCC(NC(=O)NCc3cccs3)C2)c1 (stereo not shown) [CBK307357],64.4663
16,Nc1ncc(-c2ccc(Cl)cc2)nc1-c1ccc(CCC(=O)O)cc1 [CBK064063],99.6343
17,O=C(O)c1cc(NC(=O)c2ccco2)cc(C(=O)O)c1 [CBK263360],89.1267
18,CCCC(=O)N1CCC(c2cc3n(n2)[C@@H](C(F)(F)F)C[C@@H](C)N3)C1 (stereo partly shown) [CBK282237],96.7703
19,Nc1ncnc(N(c2ccccc2)c2ccccc2)n1 [CBK288139],99.1416
20,O=C(O)CCSCC(=O)c1ccc(OC(F)F)cc1 [CBK286991],120.722
21,CCCCOC(=O)c1ccc(NC(=O)NCCc2cccs2)cc1 [CBK043381],78.6284
22,COc1cc(-c2cncc(N(CCO)CCO)n2)cc(OC)c1OC [CBK065544],101.811
23,O=C(Nc1ccc(N2CCN(Cc3ccccc3F)CC2)cc1)c1cccnc1 [CBK267250],119.01
24,CCc1nnc(NS(C)(=O)=O)s1 [CBK062197],87.416
25,Cc1cc(CNC(=O)C(C)Cn2cccn2)on1 (stereo not shown) [CBK281486],82.2276
26,CCOC(=O)N1CCN(S(=O)(=O)c2ccc3[nH]c(=O)oc3c2)CC1 [CBK304679],112.422

row,Structure (SMILES),% of control remaining
1,CCc1nn(CC(=O)NC(C)(C)C)c(=O)c2cc3sccc3n12 [CBK284056],101.083
2,CC(C)C(NC(=O)c1ccc(CS(C)(=O)=O)cc1)c1ccc(C(C)(C)C)cc1 (stereo not shown) [CBK296705],95.5905
3,O=C(Nc1nc2ccccc2[nH]1)C1c2ccccc2Oc2ccccc21 [CBK265454],90.5968
4,c1csc(C2CN(c3nccn4cnnc34)CCO2)c1 (stereo not shown) [CBK306380],64.4888
5,OCc1ccccc1-c1cc(N2CCN(Cc3cccnc3)CC2)n2nccc2n1 [CBK037105],136.387
6,Cc1cccc(C2(O)CCN(C(=O)c3cc(C(C)C)nn3C)CC2)c1 [CBK282163],85.6115
7,CN(C)CCN1C(=O)C2C3c4ccccc4C([N+](=O)[O-])(c4ccccc43)C2C1=O (stereo not shown) [CBK269286],82.3871
8,CC(C)c1ccc(S(=O)(=O)NCc2csc3ccccc23)cc1 [CBK044662],89.4717
9,CC(C)c1cc2c(s1)NC(c1ccccc1)NC2=O (stereo not shown) [CBK288209],96.9013
10,CC(=O)Nc1nc(-c2cccs2)c(-c2cc(C)no2)s1 [CBK284493],113.433
11,C=CCn1nnc(NC(=O)COc2ccccc2)n1 [CBK288131],108.562
12,COCCCn1c(=O)[nH]c2ncc(-c3cccnc3)nc21 [CBK064929],136.953
13,COc1ccc(-c2c(C(F)(F)F)oc3c(CN4CC(C)OC(C)C4)c(O)ccc3c2=O)cc1OC (stereo not shown) [CBK217829],103.324
14,Cn1ccnc1CN1C[C@@H]2CN(C(=O)C3CCCC3)C[C@]2(C(=O)O)C1 [CBK307201],70.2847
15,Cc1noc2nc(-c3ccco3)cc(C(=O)NCc3nc4ccccc4[nH]3)c12 [CBK295608],100.759
16,O=C(COc1ccc(S(=O)(=O)N2CCCCC2)cc1)NCc1ccccn1 [CBK268517],113.369
17,CCOC(=O)N1CCC(NS(=O)(=O)c2cc(Cl)sc2Cl)CC1 [CBK045462],108.338
18,O=C(c1ccco1)N1CCN(c2ccc(-c3ccc(F)c(Cl)c3)cn2)CC1 [CBK037683],87.1259
19,Oc1ccccc1Nc1nc(NC2CCCC2)c2ccccc2n1 [CBK268402C],36.8575
20,Cc1c(CN2CCC(N(C)CCN(C)C)CC2)oc2ccccc12 [CBK282038],86.4253
21,NS(=O)(=O)c1ccc(NC(=O)CCSc2ccc(Cl)cc2)cc1 [CBK269322],104.018
22,CC(Oc1ccccc1Br)c1nc(-c2nonc2N)no1 (stereo not shown) [CBK026982],71.0807
23,CNc1nc2c(ncn2C2CC(O)C(CO)O2)c(=O)[nH]1 (stereo not shown) [CBK201312],135.47
24,O=c1[nH]c2ncc(-c3ccoc3)nc2n1Cc1ccco1 [CBK064639],115.254
25,CC1(C)CCCN(Cc2nnnn2-c2ccc(S(C)(=O)=O)cc2)CC1 [CBK306177],52.871
26,Cc1nc(C2CCCN(C(=O)c3ccnn3C)C2)c2sccn12 (stereo not shown) [CBK285235],91.0214
